# B1: R273K/R422K: BD29555 CBH I with substitutions R273K/R422K (corresponding to R268K/R411K of T. reesei CBH I); SEQ ID NO:301/302 (protein)
# chain: QQIGTYTAETHPSLSWSTCKSGGSCTTNSGAITLDANWRWVHGVNTSTNCYTGNTWNTAICDTDASCAQDCALDGADYSGTYGITTSGNSLRLNFVTGSNVGSRTYLMADNTHYQIFDLLNQEFTFTVDVSHLPCGLNGALYFVTMDADGGVSKYPNNKAGAQYGVGYCDSQCPRDLKFIAGQANVEGWTPSSNNANTGLGNHGACCAELDIWEANSISEALTPHPCDTPGLSVCTTDACGGTYSSDKYAGTCDPDGCDFNPYRLGVTDFYGSGKTVDTTKPITVVTQFVTDDGTSTGTLSEIRRYYVQNGVVIPQPSSKISGVSGNVINSDFCDAEISTFGETASFSKHGGLAKMGAGMEAGMVLVMSLWDDYSVNMLWLDSTYPTNATGTPGAAKGSCPTTSGDPKTVESQSGSSYVTFSDIRVGPFNSTFSGGSSTGGSSTTTASGTTTTKASSTSTSSTSTGTGVAAHWGQCGGQGWTGPTTCASGTTCTVVNPYYSQCL
# modifications: source: /note="Description of Unknown: Variant CBH I polypeptide sequence"
# What was measured:
# [1] = Bagasse assay in the absence and presence of β-glucosidase (BG); assay type: biochemical
# Procedure: Bagasse Assay: This assay measures the activity of CBH I on bagasse, a lignocellulosic substrate. Reactions were run in 10 ml vials with 5% dilute acid pretreated bagasse (250 mg solids per 5 ml reaction). Each reaction contained 4 mg CBH I enzyme/g solids, 200 mM MES pH 6, kanamycin, and chloramphenicol. Reactions were incubated at 35° C. in hybridization incubators (Robbins Scientific), rotating at 20 RPM. Time points were taken by transferring a sample of homogenous slurry (150 μl) into a 96-well deep well plate and quenching the reaction with stop buffer (450 μl of 500 mM sodium carbonate, pH 10). Time point measurements were taken every 24 hours for 72 hours.
# Cellobiose Tolerance Assays (or Cellobiose Inhibition Assays): Tolerance to cellobiose (or inhibition caused by cellobiose) was tested in two ways in the CBH I assays. A direct-dose tolerance method can be applied to all of the CBH I assays (i.e., 4-MUL, PASC, and/or bagasse assays), and entails the exogenous addition of a known amount of cellobiose into assay mixtures. A different indirect method entails the addition of an excess amount of β-glucosidase (BG) to PASC and bagasse assays (typically, 1 mg β-glucosidase/g solids loaded). BG will enzymatically hydrolyze the cellobiose generated during these assays; therefore, CBH I activity in the presence of BG can be taken as a measure of activity in the absence of cellobiose. […]
# [2] = Library screening of BD29555 variants using the 4-MUL assay with and without cellobiose, with gluconolactone; assay type: biochemical
# Procedure: 4-Methylumbelliferyl Lactoside (4-MUL) Assay: This assay measures the activity of CBH I on the fluorogenic substrate 4-MUL (also known as MUL). Assays were run in a costar 96-well black bottom plate, where reactions were initiated by the addition of 4-MUL to enzyme in buffer (2 mM 4-MUL in 200 mM MES pH 6). Enzymatic rates were monitored by fluorescent readouts over five minutes on a SPECTRAMAX™ plate reader (ex/em 365/450 nm). Data in the linear range was used to calculate initial rates (Vo).
# Cellobiose Tolerance Assays (or Cellobiose Inhibition Assays): Tolerance to cellobiose (or inhibition caused by cellobiose) was tested in two ways in the CBH I assays. A direct-dose tolerance method can be applied to all of the CBH I assays (i.e., 4-MUL, PASC, and/or bagasse assays), and entails the exogenous addition of a known amount of cellobiose into assay mixtures. […]
# The wild type CBH I polypeptide BD29555 was mutagenized to identify variants with improved product tolerance. […] This product-release-site library was designed based on residues directly interacting with the cellobiose product in an attempt to identify variants with weakened interactions with cellobiose from which the product would be released more readily than the wild type enzyme. […]
molecule,measurement,setting,value
B1,sensitivity to the presence or accumulation of cellobiose compared with wild type,"[1]; bagasse assay, absence vs. presence of BG",less sensitive to the presence of cellobiose than the wild type
same,Tolerance to cellobiose accumulation % Activity in Bagasse Assay (−/+BG),"[1]; variants of BD29555, [(Activity without BG)/(Activity with BG)]*100, conversion of glucan after 72 hours",84%
same,cellobiose tolerance in library screen,[2]; 250 mg/L cellobiose,cellobiose tolerance at 250 mg/L
same,activity among the library variants,"[2]; 60-member BD29555 library, 4-MUL assay",greatest activity among the variants

# Source: patent publication US9096871B2, “Variant CBH I polypeptides with reduced product inhibition” (BP Corporation North America Inc., priority 2010, dated 2015)
